Source: the supplement of paper PMC12645437, “Orthogonal IMiD-Degron Pairs Induce Selective Protein Degradation in Cells” (ACS Chemical Biology, 2025)
The other results are listed elsewhere or left out.

target: no compound (DMSO); assay: log2 fold change of degron read counts, EGFP-low vs EGFP+ sorted cells; higher = lower degron-EGFP level without compound (poor expression or instability); conditions: compound: DMSO control; 18 h
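Also: jurkat cells carrying a lentiviral library of mutant zinc finger degrons fused to EGFP plus mCherry, mCherry+ cells FACS sorted, degron abundance counted by next-generation sequencing.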

| Sequence | log2 fold change of degron read counts |
| --- | --- |
| FMCEICGRIFTQKGNLLRHIKL | -0.0639 |
| FVCEVCGASFTQKGNLLRHIKL | -1.47 |
| FHCEQCGAKFTQKGNLLRHIKL | -1.86 |
| FMCPICGAFFTQKGNLLRHIKL | 0.437 |
| FICEQCGAYFTQKGNLLRHIKL | -0.127 |
| FYCEQCGAQFTQKGNLLRHIKL | -0.375 |
| FGCEICGAMFTQKGNLLRHIKL | -0.821 |
| FWCPICGAEFTQKGNLLRHIKL | 0.893 |
| LECPICGFPCTQKGNLLRHIKL | 0.234 |
| FSCNQCGATFTQKGNLLRHIKL | -0.565 |
| FHCNQCGRYFTQKGNLLRHIKL | 0.805 |
| FNCPICGRPFTQKGNLLRHIKL | -0.21 |
| FVCPQCGACFTQKGNLLRHIKL | -0.984 |
| FVCNQCGHKFTQKGNLLRHIKL | -1.34 |
| LDCPICGFYCTQKGNLLRHIKL | 1.09 |
| FSCDICGAKFTQKGNLLRHIKL | -0.896 |
| FQCDICGATFTQKGNLLRHIKL | -1.67 |
| FMCEICGHFFTQKGNLLRHIKL | -0.594 |
| FACEICGHRFTQKGNLLRHIKL | -1.85 |
| LKCPICGFHCTQKGNLLRHIKL | 0.11 |
| FMCNQCGASFTQKGNLLRHIKL | -1.05 |
| FDCEICGHNFTQKGNLLRHIKL | -1.08 |
| FLCDQCGAFFTQKGNLLRHIKL | -1.31 |
| LFCEICGFECTQKGNLLRHIKL | -0.92 |
| FGCPQCGAQFTQKGNLLRHIKL | -0.996 |

| Sequence | log2 fold change of degron read counts |
| --- | --- |
| FHCPVCGAVFTQKGNLLRHIKL | -0.224 |
| FYCEICGRGFTQKGNLLRHIKL | -2.31 |
| FWCNQCGHWFTQKGNLLRHIKL | 2.1 |
| FWCNQCGHTFTQKGNLLRHIKL | 0.872 |
| LICEICGFPCTQKGNLLRHIKL | 0.529 |
| FSCPICGALFTQKGNLLRHIKL | 0.439 |
| FNCNVCGADFTQKGNLLRHIKL | -1.56 |
| LYCPICGFECTQKGNLLRHIKL | 0.591 |
| FACPICGRSFTQKGNLLRHIKL | -0.148 |
| FRCPICGHTFTQKGNLLRHIKL | -0.099 |
| FECEICGAQFTQKGNLLRHIKL | -1.35 |
| FICNQCGRKFTQKGNLLRHIKL | -1.03 |
| FFCSVCGHAFTQKGNLLRHIKL | 0.197 |
| FSCSVCGHCFTQKGNLLRHIKL | -0.326 |
| FDCPVCGAWFTQKGNLLRHIKL | -0.193 |
| FFCNICGAHFTQKGNLLRHIKL | 0.447 |
| LMCEICGFFCTQKGNLLRHIKL | 1.57 |
| FLCNQCGHIFTQKGNLLRHIKL | 1.2 |
| LICNQCGFMCTQKGNLLRHIKL | 0.511 |
| FRCSVCGHSFTQKGNLLRHIKL | 0.153 |
| FLCPICGACFTQKGNLLRHIKL | 0.258 |
| FACPICGHDFTQKGNLLRHIKL | -0.738 |
| FACNVCGAPFTQKGNLLRHIKL | 0.683 |
| FWCEICGAIFTQKGNLLRHIKL | 0.868 |
| FVCNQCGASFTQKGNLLRHIKL | -1.24 |
